Assay results as given in the supplement of paper PMC12217912.
The other results are listed elsewhere or left out. Sequences were assembled here from the parent chain. Inactive controls read about 0.05.

B1: TEV protease; numbered along this chain (parent)
chain: MGESLFKGPRDYNPISSSICHLTNESDGHTTSLYGIGFGPFIITNKHLFRRNNGTLVVQSLHGVFKVKDTTTLQQHLVDGRDMIIIRMPKDFPPFPQKLKFREPQREERICLVTTNFQTKSMSSMVSDTSCTFPSGDGIFWKHWIQTKDGQCGSPLVSTRDGFIVGIHSASNFTNTNNYFTSVPKNFMELLTNQEAQQWVSGWRLNADSVLWGGHKVFMVKPEEPFQPVKEATQL

Variants of: B1
Test: raw area under fraction-flipped curve 0-4 h after induction (AUC4h, not background-subtracted), DNA-recorder readout of cleavage of the substrate (dimensionless); higher = more cleavage of the substrate by the protease variant
Settings: temperature: 34 °C; time window: 0-4 h after rhamnose induction
Experimental: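 In vivo DNA recorder in E. coli TOP10(DE3) ΔrhaA at 34 °C. Each TEVp single-site mutant (parent TEVp 0) is paired with a single-site variant of the 7-mer TEVs (canonical ENLYFQ|S). The substrate sits between flexible linkers in a Bxb1-sfGFP-TEVs-SsrA fusion, so cleavage stabilises Bxb1 and speeds flipping of a recombination array, read by NGS. The value is the raw area under the fraction-flipped curve over 0-4 h after rhamnose induction (AUC4h), with ≥20 reads per time point. It is not background-subtracted; inactive controls average about 0.047.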
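Also: Bxb1 expression induced with 0.2% (w/v) L-rhamnose at OD600 near 0.5, cultures sampled hourly, flipped fraction per protease–substrate barcode pair counted by paired-end Illumina sequencing.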

Row | Variant | area with substrate ENLYFQA | area with substrate ENLYFQC | area with substrate ENLYFQD | area with substrate ENLYFQE | area with substrate ENLYFQG | area with substrate ENLYFQI | area with substrate ENLYFQK | area with substrate ENLYFQL | area with substrate ENLYFQM | area with substrate ENLYFQN | area with substrate ENLYFQQ | area with substrate ENLYFQR | area with substrate ENLYFQS | area with substrate ENLYFQT | area with substrate ENLYFQV | area with substrate ENLYFQW | area with substrate ENLYFQY | area with substrate ENLYFQF | area with substrate ENLYFQH | area with substrate ENLYFQP
1 | H47S | 0.0616 | 0.077 | 0.0576 | 0.0614 | 0.0642 | 0.0611 | 0.0628 | 0.0576 | 0.0602 | 0.0593 | 0.0538 | 0.0554 | 0.0602 | 0.0518 | 0.0576 | 0.055 | 0.0866 |  |  | 
2 | H47I | 0.0526 | 0.0561 | 0.0638 | 0.0581 |  | 0.0623 | 0.0628 | 0.0565 |  | 0.0533 |  | 0.0648 | 0.0604 | 0.0538 | 0.0556 | 0.0487 | 0.0671 | 0.0711 | 0.0667 | 0.016
3 | N53R | 0.0829 |  | 0.0785 |  | 0.0729 | 0.0758 | 0.045 | 0.0654 | 0.0868 | 0.0708 |  | 0.0543 | 0.0853 |  | 0.0636 | 0.0589 |  | 0.0696 | 0.0889 | 
4 | N53T | 0.0743 |  |  |  | 0.0321 | 0.0646 |  | 0.0709 | 0.0844 | 0.0734 |  |  | 0.0883 | 0.0639 | 0.0699 | 0.0554 |  |  | 0.0748 | 
5 | D82F | 0.0501 | 0.0445 | 0.0402 |  |  | 0.0517 | 0.0705 | 0.0507 | 0.0461 | 0.0462 |  | 0.0472 | 0.0558 | 0.0653 |  | 0.0427 | 0.046 | 0.0532 | 0.0489 | 0.0496
6 | D82W | 0.0587 | 0.0574 |  |  | 0.0584 | 0.0585 | 0.0284 | 0.0534 | 0.055 | 0.0369 |  | 0.0807 | 0.0548 | 0.0508 |  | 0.0463 | 0.0528 |  |  | 
7 | E107S | 0.0911 | 0.122 |  |  | 0.078 | 0.0598 | 0.064 | 0.0746 | 0.0844 | 0.0797 |  | 0.0622 | 0.101 | 0.0584 | 0.0833 | 0.0545 | 0.0771 |  | 0.0876 | 
8 | E107M | 0.0788 |  | 0.0656 |  |  |  | 0.0669 | 0.0465 |  | 0.0733 |  | 0.0505 | 0.0956 | 0.0702 | 0.0592 |  | 0.072 | 0.0853 |  | 0.0518
9 | H76S | 0.0777 | 0.12 | 0.051 | 0.0696 | 0.0898 |  | 0.0735 | 0.0607 | 0.0789 | 0.0737 | 0.0901 | 0.0446 | 0.0936 | 0.0638 | 0.0578 |  | 0.0583 | 0.0711 | 0.0679 | 0.0547
10 | H76I | 0.0809 | 0.0824 |  |  | 0.0805 |  | 0.0721 | 0.0591 | 0.0698 | 0.0618 |  |  | 0.0837 |  |  | 0.0537 |  |  |  | 
11 | M83I | 0.0948 | 0.0986 |  |  |  | 0.0681 |  | 0.0571 |  | 0.057 |  | 0.0718 | 0.081 | 0.0625 |  | 0.0746 |  |  | 0.0196 | 0.105
12 | V58K | 0.0434 |  |  |  | 0.0259 |  |  |  |  | 0.0438 |  |  | 0.0509 |  | 0.0374 |  | 0.0367 |  |  | 
13 | K68L | 0.102 | 0.111 |  | 0.0565 | 0.0879 | 0.0535 | 0.0596 | 0.0507 |  | 0.0748 | 0.0745 | 0.0602 | 0.0968 |  | 0.0656 | 0.0534 | 0.0742 | 0.0657 | 0.0637 | 0.0479
14 | K68Q | 0.108 | 0.13 |  |  |  | 0.0614 | 0.072 | 0.0647 |  | 0.0914 | 0.0977 | 0.057 | 0.106 | 0.0648 | 0.0576 | 0.0632 | 0.0886 |  | 0.0659 | 0.0496
15 | K68E | 0.0901 | 0.123 | 0.0838 |  | 0.102 |  | 0.0671 | 0.0579 | 0.0846 | 0.0815 |  | 0.0537 | 0.112 | 0.0493 |  | 0.0691 | 0.0843 |  | 0.0865 | 0.0585
16 | S60E | 0.0444 | 0.0642 | 0.0468 |  | 0.059 | 0.0643 | 0.0423 | 0.0517 | 0.0583 | 0.0553 | 0.0519 | 0.0514 | 0.0619 | 0.0499 | 0.0529 | 0.0498 |  | 0.0489 | 0.0602 | 0.0445
17 | S60Y | 0.0928 | 0.106 | 0.066 |  |  | 0.0684 | 0.0099 | 0.0733 |  |  |  | 0.0475 | 0.0984 | 0.061 | 0.119 | 0.0724 | 0.0275 |  |  | 0.0628
18 | L77D | 0.0863 | 0.0657 |  |  | 0.0683 | 0.0574 | 0.0737 | 0.055 | 0.0537 | 0.0824 |  | 0.0592 | 0.0676 | 0.0524 | 0.0617 | 0.063 | 0.0514 | 0.0542 | 0.0668 | 
19 | I84C | 0.0859 |  |  |  |  | 0.0767 | 0.0702 | 0.0535 | 0.106 | 0.0857 |  | 0.0636 | 0.104 |  |  | 0.0741 | 0.0669 | 0.0708 | 0.0804 | 
20 | I85V | 0.0793 | 0.098 | 0.0711 |  | 0.0797 | 0.0451 |  | 0.0596 | 0.0964 | 0.0775 | 0.0748 |  | 0.0895 |  |  | 0.0629 | 0.0636 | 0.0803 |  | 0.0782
21 | L61D | 0.0887 | 0.0945 | 0.0622 |  |  | 0.0622 |  | 0.0578 |  | 0.0682 | 0.0761 | 0.0622 | 0.102 | 0.0692 | 0.0803 | 0.0654 | 0.0777 |  | 0.08 | 
22 | G54T | 0.0626 | 0.0772 | 0.0768 | 0.0627 | 0.0567 | 0.0592 | 0.0419 | 0.0651 | 0.0647 | 0.0677 | 0.0567 | 0.0526 | 0.0775 | 0.0495 |  | 0.0576 | 0.055 |  | 0.063 | 0.0494
23 | G54Y | 0.0613 | 0.0885 |  |  | 0.0689 | 0.0557 | 0.0576 | 0.0547 | 0.0612 |  |  | 0.0668 | 0.0726 | 0.0588 | 0.0769 | 0.0658 | 0.0585 | 0.0514 | 0.0605 | 0.0479
24 | G54N | 0.0673 | 0.0721 |  |  |  | 0.0635 | 0.0497 | 0.0595 | 0.0564 | 0.0587 |  | 0.0546 | 0.0675 | 0.0598 | 0.0556 | 0.0589 |  | 0.078 |  | 0.0537
